PubChem BioAssay AID686978 (National Center for Advancing Translational Sciences (NCATS), 2013)
Out of some 420,000 compounds screened, about 64,000 (15%) were called active. Inconclusive means that the source gave no clear call. Such entries were picked first, then a sample of the others. Calls follow the shape of the dose curve; as a rule, active = well fitted inhibition curve with a large enough effect; inconclusive = small, poorly fitted or top-dose-only effect; inactive = flat fitted curve, though single readings scatter. No potency is given beside an inconclusive call; the fits are too rough.

Test: qHTS for Inhibitors of human tyrosyl-DNA phosphodiesterase 1 (TDP1): qHTS in cells in absence of CPT; also: nearly all actives have a fitted effect of over 55% in size
Conditions: DT40 Tdp1-/- hTDP1 cells, no CPT, ATP luminescence, 48 h; activity change, negative = growth inhibition: at 46.2 µM (top of the series)
Method in brief: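 Compound effects on proliferation are scored in DT40 Tdp1-/-;hTDP1 cells in the absence of CPT. ATP levels (CellTiter-Glo luminescence) are recorded after a ≥48 hr, 37 °C incubation.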
% is scaled to controls: 0 for no effect and ±100 for the full control effect; potency is read from the fitted curve at half-maximal effect; tags tell the direction and shape of the fitted curve.

Row | SMILES | Potency | activity change, negative = growth inhibition
1 | O=C(c1ccc(F)cc1F)N1CCCC(c2nc(-c3ccc(F)cc3)no2)C1 (stereo unspecified) | active: 18.4 µM | –
2 | Cc1onc(-c2c(F)cccc2Cl)c1C(=O)NCCO | – | inactive: 19.3%
3 | COc1cccc(CN2CCNC(=O)C2CC(=O)N(C)Cc2cnccn2)c1OC (stereo unspecified) | – | inactive: -16.1%
4 | COc1ccc(-c2c(C#N)c(SCC(=O)Nc3ccccc3C)nc(C)c2C(=O)Nc2ccccc2)cc1OC | – | inactive: -1.68%
5 | Cc1ccc(-c2csc(C(O)c3cccc(Cl)c3)n2)cc1C (stereo unspecified) | inconclusive [inhibitor, single point] | –
6 | O=C(c1ccco1)N1CCN(Cc2cc(=O)c(OCc3ccccc3Cl)co2)CC1 | inconclusive [inhibitor, partial curve, poor fit] | –
7 | NC(=O)C1CCN(C(=O)CC2(CC(=O)O)CCCC2)CC1 | – | inactive: -2.11%
8 | CCN(CC(=O)Nc1ccccc1C(F)(F)F)C(=O)c1ccc2[nH]c3c(c2c1)CC(C)CC3 (stereo unspecified) | active: 18.4 µM | –
9 | O=C(COc1ccc(Cl)cc1Br)NCC(c1ccco1)N1CCCC1 (stereo unspecified) | active: 18.4 µM | –
10 | N#C/C(=C\c1ccc(Cl)cc1)C(=O)NCC1CCCO1 (stereo unspecified) | inconclusive [inhibitor, partial curve, poor fit] | –
11 | Cc1ccc(O)c(CNCCNCc2cc(C)ccc2O)c1 | active: 13 µM | –
12 | Cn1cc(S(=O)(=O)c2ccccc2)c(=O)c2cc(F)c(N3CCOCC3)cc21 | inconclusive [inhibitor, partial curve] | –
13 | Cc1cc(OCC(=O)NNC(=O)c2cnccn2)cc(C)c1Cl | active: 5.8 µM | –
14 | COc1ccc(CCN2C(=O)N(c3ccc(F)cc3)C(=O)C2CC(=O)Nc2ccccc2)cc1 (stereo unspecified) | inconclusive [inhibitor, single point] | –
15 | CCn1nc(C)cc1C(=O)Sc1cccc(Cl)c1 | active: 4.11 µM | –
16 | CN(CC(=O)N1CCN(c2ccccc2)CC1)C1CCCc2ccccc21 (stereo unspecified) | inconclusive [inhibitor, partial curve] | –
17 | COc1ccc(-c2cc(C(F)F)n3ncc(C(=O)Nc4cc(OC)ccc4OC)c3n2)cc1 | inconclusive [inhibitor, single point] | –
18 | C=CCn1c(CNC(=O)CCC)nc2ccccc21 | inconclusive [inhibitor, full curve] | –
19 | COc1ccc(-c2cc(C(=O)Nc3c(Cl)cc(Cl)cc3Cl)c3ccccc3n2)cc1OC | inconclusive [inhibitor, partial curve] | –
20 | Cc1c(C(=O)NNC(=O)c2ccncc2)oc2ccccc12 | – | inactive: -22.1%
21 | CCCCCNC(=O)C(c1ccnc2ccccc12)n1c(=O)c(-c2ccccc2)nc2ccccc21 (stereo unspecified) | inconclusive [inhibitor, single point] | –
